Assay results: the supplement of paper PMC10126150
Sequences with one replicate were seen in a single cluster, so their values are uncertain.

Tested on: ATP
Test: switch fluorescence ratio, 500 uM ATP over buffer (Cy3 cluster intensity, sum of 5 cycles each) (fold (ratio)); higher = stronger signal-on switching upon ATP binding; sequences stand for … in TCGTCGGCAGCGTCAGATGTGTATAAGAGACAGTTTTTTTTTTTTTTTTTTTTTTTTT…TC
Settings: aptamer strand: ATP DNA aptamer (quencher-CACCTGGGGGAGTATTGCGGAGGAAGG + anchor), 100 nM annealed; ATP concentration: 500 uM; one replicate
Outline: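 Between each of five buffer/ATP cycles, the flow-cell was stripped with NaOH and re-annealed. Each cycle imaged Cy3-labelled switching-strand clusters, annealed to 100 nM quencher-labelled ATP aptamer on a modified Illumina MiSeq flow-cell, first in selection buffer and then after 15 min with 500 uM ATP at 22 °C. The fluorescence ratio is summed target-cycle over summed buffer-cycle Cy3 intensity per cluster, averaged per switch-domain sequence, with clusters outside 100-1000 RFU excluded.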
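Note: ATP exposure 15 min at 22 °C before imaging.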

Row | Sequence | switch fluorescence ratio
1 | ATTAGTTAAC | 1.05
2 | TCAGCCTGGG | 1.01
3 | ACGTAACTT | 1.28
4 | ATGGACGCGA | 1.35
5 | TACTGGGTG | 1.12
6 | GTCATAGCA | 1.01
7 | ACAATTTAGT | 1.06
8 | ATTCATGACA | 1.06
9 | ACTCACTGTT | 1.17
10 | TATCTTTAT | 0.995
11 | GCGAAATATC | 1.71
12 | ATGTAATCGT | 1.02
13 | CCTAAAAAGT | 0.983
14 | TTCTCTTCTC | 1.01
15 | CGCGCACTTG | 1
16 | TAGTTATACC | 1.01
17 | TTGAGCTATG | 0.976
18 | ATGGACTTA | 1.11
19 | GTCGCAGGAA | 0.985
20 | TGTTTTTGG | 0.967
21 | ACATGCAGGT | 0.994
22 | GCTTGCCTTT | 0.918
23 | ACTGCCATG | 1.1

Row | Sequence | switch fluorescence ratio
24 | TTTCCTCGTG | 0.985
25 | AAAACTACGG | 1.31
26 | AAATCGGGTC | 1.09
27 | TCTAACGC | 2.42
28 | GGTTAGACGG | 0.946
29 | GCAGTATT | 1.41
30 | TTGGGATTTC | 1
31 | TAAGTCCGTA | 0.891
32 | AATGTGAGGT | 1
33 | ATATTGCTAT | 0.967
34 | TTACTAACCG | 1.13
35 | ACTTTTGGCT | 1
36 | GGGCTTCG | 1.02
37 | GCTGTAGAAA | 1
38 | CATGAGAAAG | 1.02
39 | GAGTCTCCAG | 1
40 | GCTCCCGATT | 1.37
41 | GCTGAAGAGT | 1.03
42 | AGTTGGATAC | 1.03
43 | GGAAAACAGT | 1.03
44 | TCTAGAGGTA | 0.98
45 | GACCACGCGA | 3.09
46 | TTCGCCTGC | 1.01

Row | Sequence | switch fluorescence ratio
47 | TGATTGGAC | 1.04
48 | TTGCGGTGCA | 1
49 | AACTGACTT | 1.11
50 | GACCTACAGC | 1.13
51 | CGCATATGTT | 1.19
52 | ACGCGTGACA | 1.02
53 | CCTCGAACAG | 1.31
54 | GTGGCGTGAG | 0.974
55 | AATAAACAGT | 0.986
56 | TGATGTAGCC | 0.963
57 | ATACTACTCA | 1.04
58 | CCCTTTGTCC | 1.07
59 | ATGACCTAAA | 1
60 | GGTGCCGCAC | 1.05
61 | CGCTTGTCTA | 0.957
62 | GAATAATTAG | 0.976
63 | CTCATAAATG | 1.04
64 | AGGTTAAGAG | 1.01
65 | TTAGAAAGTG | 0.979
66 | TCAGCCGGCG | 1.05
67 | ATTATAAGAT | 1.06
68 | ATTTACTTTT | 1.03
69 | CCGCGGTTGG | 1.09

Row | Sequence | switch fluorescence ratio
70 | TACTCCAGGG | 1.72
71 | AGTTTATATA | 1.02
72 | CGTGCCCACT | 1.02
73 | GGCGTACATG | 1.02
74 | TTACATTGTC | 0.998
75 | TTACAGTATT | 1.07
76 | GCCGAGATCT | 0.938
77 | CCCATTTATT | 0.944
78 | TGATAGACTT | 1
79 | CGTGCGCCTA | 1.08
80 | CGATCGGAGA | 1.14
81 | ACCGTTAAAT | 1.07
82 | CACGTTCTTC | 1.02
83 | TCGTTCCGAT | 1.02
84 | TAGGTTGTGA | 0.996
85 | ATCTGGGGCT | 0.975
86 | ATCAAATTAG | 0.989
87 | TTTCGGCCCA | 0.967
88 | CCGGTTGCTC | 2.08
89 | GAGAGTCGGG | 0.938
90 | CCGTTCTGGT | 0.954
91 | ATACGAGTTG | 0.983
92 | TCGCATGGAG | 1.01

Row | Sequence | switch fluorescence ratio
93 | ATTCCCCAAG | 1.26
94 | AATTTTGAAG | 1.02
95 | ATACCCAACT | 1.12
96 | TTTATGGTCG | 0.934
97 | TAGGGTGGAC | 0.985
98 | AATACATGAC | 1.19
99 | ACCTACCTTT | 1.27
100 | GACCTCGCAG | 1.17
101 | GTTAGTGACG | 1.03
102 | TAGGGCTATG | 1.03
103 | CTGGGGTGGT | 0.973
104 | TGGCGTGGCT | 1.03
105 | GCTATTCACT | 1.05
106 | CGATCGTCCT | 1.01
107 | TAAGTGACGT | 0.977
108 | CAGAATTCG | 1.02
109 | CGATGGTTG | 1.06
110 | TGTCCGGGAC | 0.996
111 | CTCCTCTAGC | 2.09
112 | CTTCCGTATG | 1.47
113 | TAATCGACGT | 1.04
114 | AAAGCCTTCC | 2.94
115 | GGACAAAAAG | 0.982

Row | Sequence | switch fluorescence ratio
116 | ATTTGAAGTG | 0.922
117 | CTATGATCAT | 0.974
118 | AAATGGTCAT | 0.943
119 | ATTCCTGTTA | 0.986
120 | TCTTAGACG | 0.892
121 | TGGCCAGCGG | 1.01
122 | GCGTCCCCGG | 1.28
123 | TGGTCAAGGT | 0.985
124 | CTACCGTGCC | 1.35
125 | ATCTGACCCG | 1.14
126 | GCGAAAATAT | 0.976
127 | GATAAAATTA | 1.04
128 | GTTGGCGGCG | 0.979
129 | CTTACATTCA | 1.08
130 | ACGGCCACAC | 1.25
131 | CCCCAGCATG | 2.35
132 | TGTCCGGTTG | 1.28
133 | GAACCCCCGG | 0.986
134 | AGCACTCTTC | 1.04
135 | TCTGGTCCG | 1.04
136 | GTTTTTATTA | 1.01
137 | ACTAGAAGCG | 1.01
138 | AAGTAATGGC | 1.03

Row | Sequence | switch fluorescence ratio
139 | GGCTTGAGAC | 1.02
140 | TATATCTCC | 1.05
141 | GTTAAATAG | 1.01
142 | ATTCTAGGGT | 0.976
143 | GATGAGGACC | 0.984
144 | ATCTTGGGGG | 1.08
145 | TTGGAAGGAA | 1.04
146 | CGTGTGCGGG | 0.975
147 | TCGCGTCTAA | 1
148 | GCTGGAGTTT | 0.985
149 | TAAGAGCCGC | 0.972
150 | GAAGGAGATA | 1.07
151 | TACGCCGTAA | 1.09
152 | CATGGTCCGG | 0.993
153 | CCTAACGCGG | 2.87
154 | GGTTGACGTG | 1.04
155 | AATTGGCTGG | 1.02
156 | GTTCTATGAA | 0.991
157 | ACGCTACTAC | 4.17
158 | ACGTGCTTGT | 1.02
